Data on 24 molecules can be found in PMC4336329 (PLoS ONE, 2015).

Out of some 310,000 compounds screened, about 14,000 (4.5%) showed an effect of 50% or more. Effects have a minus sign here. The list shows a part of the results.
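Also: peak tail current of the secondary pulse compared with the same well before compound.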

The target of the test is human ether-à-go-go-related gene (hERG) potassium channel (human, UniProt Q12809). Description: primary screen, population patch clamp on CHO cells stably expressing hERG.
Sequence of human ether-à-go-go-related gene (hERG) potassium channel (Q12809 whole entry, looked up): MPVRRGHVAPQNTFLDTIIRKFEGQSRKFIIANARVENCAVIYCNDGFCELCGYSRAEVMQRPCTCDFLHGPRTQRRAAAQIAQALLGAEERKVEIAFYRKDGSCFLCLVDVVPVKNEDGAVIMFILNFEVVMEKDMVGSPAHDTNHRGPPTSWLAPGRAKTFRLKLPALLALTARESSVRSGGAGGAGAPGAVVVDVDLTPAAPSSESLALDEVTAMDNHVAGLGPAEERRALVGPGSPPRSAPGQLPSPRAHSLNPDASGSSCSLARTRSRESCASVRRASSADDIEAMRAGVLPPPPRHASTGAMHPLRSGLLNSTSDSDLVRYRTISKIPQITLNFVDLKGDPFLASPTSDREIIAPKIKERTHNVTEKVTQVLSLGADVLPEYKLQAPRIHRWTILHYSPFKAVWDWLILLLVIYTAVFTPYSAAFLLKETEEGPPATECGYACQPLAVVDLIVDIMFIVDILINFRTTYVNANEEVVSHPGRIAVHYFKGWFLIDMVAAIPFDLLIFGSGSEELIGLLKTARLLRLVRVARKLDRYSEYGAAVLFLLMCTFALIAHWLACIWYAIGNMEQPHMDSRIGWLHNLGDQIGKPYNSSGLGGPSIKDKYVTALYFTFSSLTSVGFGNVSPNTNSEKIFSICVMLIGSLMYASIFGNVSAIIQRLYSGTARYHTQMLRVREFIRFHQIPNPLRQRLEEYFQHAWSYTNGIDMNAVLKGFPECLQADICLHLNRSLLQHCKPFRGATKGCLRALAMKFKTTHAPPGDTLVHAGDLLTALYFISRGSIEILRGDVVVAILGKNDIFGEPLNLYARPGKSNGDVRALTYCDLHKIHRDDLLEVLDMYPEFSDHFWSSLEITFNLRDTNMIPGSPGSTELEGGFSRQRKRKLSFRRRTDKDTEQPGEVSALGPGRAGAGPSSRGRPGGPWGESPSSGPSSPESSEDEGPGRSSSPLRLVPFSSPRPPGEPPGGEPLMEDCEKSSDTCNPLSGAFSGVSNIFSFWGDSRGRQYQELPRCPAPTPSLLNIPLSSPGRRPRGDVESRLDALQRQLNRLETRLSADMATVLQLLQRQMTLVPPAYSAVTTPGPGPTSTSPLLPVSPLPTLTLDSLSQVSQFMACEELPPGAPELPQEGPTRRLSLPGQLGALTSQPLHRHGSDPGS
Consider `CC(C(=O)NC1CCCC1)N1CCN(Cc2ccccc2)CC1` (stereo not drawn), for which the “hERG current change (%, negative = inhibition) at 10uM” value was 28.6%.
To `COc1cc(C(=O)NCCC2=CCCCC2)cc(OC)c1OC` belongs -5.65%; to `CCCCCCCCCCCCCCCC[N+](C)(C)C.O.[OH-]`, -0.893%.
To `NC(=O)/C=C\c1cn(-c2ccccc2)nc1-c1ccc2c(c1)OCCO2` belongs -1.78%.
To `COc1ccccc1OCC(=O)Nc1ccc(S(=O)(=O)Nc2nccs2)cc1` belongs 15.4%.
Turning to `O=[N+]([O-])c1ccccc1CN1CCN(c2ncccn2)CC1`, the “hERG current change (%, negative = inhibition) at 10uM” value came to 5.81%.
For the molecule `Cc1c(C(=O)C(=O)N2c3ccc(F)cc3CCC2C)c2ccccc2n1C` (stereo not drawn), the “hERG current change (%, negative = inhibition) at 10uM” value is recorded as -27.8%.
To `CC(C)N(C(=O)Cn1c(=O)oc2ccccc21)c1ccccc1` belongs 6.95%.
To `COc1ccccc1NC(=O)Nc1nnc(C(C)c2ccccc2)s1` (stereo not drawn) belongs 6.01%; to `O=C(Nc1ccc(NC(=O)c2cc3ccccc3o2)cc1)c1ccc2c(c1)OCCO2`, 13.2%; to `O=C1CCc2cc(S(=O)(=O)N3CCCC3C(=O)NC3CCCCCCC3)ccc2N1` (stereo not drawn), -50.3%.
To `COCCCNC(=S)N(CCCO)Cc1cc2cc3c(cc2[nH]c1=O)OCCO3` belongs 13.6%; to `N#Cc1cc(Oc2cccnc2)c(Oc2cccnc2)cc1C#N`, -4.26%.
Take `Cc1ccc2[nH]c(=O)c3cc(C(=O)N(C)c4ccc(C)c(C)c4)sc3c2c1`: the “hERG current change (%, negative = inhibition) at 10uM” value was -7.21%.
The result for `COc1ccc(/C(O)=C/C(=O)C(=O)NNC(=O)C(O)(c2ccccc2)c2ccccc2)cc1` reads -1.19%; that for `Cc1ccc2nc(N(CCN(C)C)C(=O)C3=COCCO3)sc2c1.Cl`, -44.1%.
To `O=C(O)c1cccc(NS(=O)(=O)c2cccc3cccnc23)c1` belongs 5.51%; to `NS(=O)(=O)c1cc2c(cc1Cl)NC(C1C[C@H]3C=C[C@@H]1C3)NS2(=O)=O` (stereo partly drawn), 18.9%.
On to `NC(=O)c1ccccc1NC(=O)CN1CCN(Cc2ccc(Cl)cc2Cl)CC1`, for which the “hERG current change (%, negative = inhibition) at 10uM” value was -76.1%.
The result for `S=c1[nH]nc(-c2ccncc2)n1/N=C/C=C/c1ccccc1` reads 8.71%; that for `Cc1cc(C(=O)NCCCN2CCCC2=O)cs1`, 17.7%.
Turning to `CC1CCCC(C)N1NC(=O)c1ccc(Cl)c(S(N)(=O)=O)c1` (stereo not drawn), the “hERG current change (%, negative = inhibition) at 10uM” value is given as -4.12%.
The result for `Cc1ccc2cc(C#N)c(N3CCCN(S(=O)(=O)c4ccc(F)cc4)CC3)nc2c1` reads 2.01%.
With `Cc1cc(C=C2C(=O)NC(=S)NC2=O)c(C)n1-c1ccc2c(c1)OCO2`, the “hERG current change (%, negative = inhibition) at 10uM” value came out at 7.38%.
